Measured values from article PMC4336329 (PLoS ONE, 2015).
Hit rate of the full screen: of about 310,000 compounds, about 2,200 (0.71%) showed an effect of 50% or more. Effects have a minus sign here. Some of the results follow.

Target: human ether-à-go-go-related gene (hERG) potassium channel (human, UniProt Q12809)
Assay: primary screen, population patch clamp on CHO cells stably expressing hERG

Chain of human ether-à-go-go-related gene (hERG) potassium channel (Q12809 whole entry, looked up): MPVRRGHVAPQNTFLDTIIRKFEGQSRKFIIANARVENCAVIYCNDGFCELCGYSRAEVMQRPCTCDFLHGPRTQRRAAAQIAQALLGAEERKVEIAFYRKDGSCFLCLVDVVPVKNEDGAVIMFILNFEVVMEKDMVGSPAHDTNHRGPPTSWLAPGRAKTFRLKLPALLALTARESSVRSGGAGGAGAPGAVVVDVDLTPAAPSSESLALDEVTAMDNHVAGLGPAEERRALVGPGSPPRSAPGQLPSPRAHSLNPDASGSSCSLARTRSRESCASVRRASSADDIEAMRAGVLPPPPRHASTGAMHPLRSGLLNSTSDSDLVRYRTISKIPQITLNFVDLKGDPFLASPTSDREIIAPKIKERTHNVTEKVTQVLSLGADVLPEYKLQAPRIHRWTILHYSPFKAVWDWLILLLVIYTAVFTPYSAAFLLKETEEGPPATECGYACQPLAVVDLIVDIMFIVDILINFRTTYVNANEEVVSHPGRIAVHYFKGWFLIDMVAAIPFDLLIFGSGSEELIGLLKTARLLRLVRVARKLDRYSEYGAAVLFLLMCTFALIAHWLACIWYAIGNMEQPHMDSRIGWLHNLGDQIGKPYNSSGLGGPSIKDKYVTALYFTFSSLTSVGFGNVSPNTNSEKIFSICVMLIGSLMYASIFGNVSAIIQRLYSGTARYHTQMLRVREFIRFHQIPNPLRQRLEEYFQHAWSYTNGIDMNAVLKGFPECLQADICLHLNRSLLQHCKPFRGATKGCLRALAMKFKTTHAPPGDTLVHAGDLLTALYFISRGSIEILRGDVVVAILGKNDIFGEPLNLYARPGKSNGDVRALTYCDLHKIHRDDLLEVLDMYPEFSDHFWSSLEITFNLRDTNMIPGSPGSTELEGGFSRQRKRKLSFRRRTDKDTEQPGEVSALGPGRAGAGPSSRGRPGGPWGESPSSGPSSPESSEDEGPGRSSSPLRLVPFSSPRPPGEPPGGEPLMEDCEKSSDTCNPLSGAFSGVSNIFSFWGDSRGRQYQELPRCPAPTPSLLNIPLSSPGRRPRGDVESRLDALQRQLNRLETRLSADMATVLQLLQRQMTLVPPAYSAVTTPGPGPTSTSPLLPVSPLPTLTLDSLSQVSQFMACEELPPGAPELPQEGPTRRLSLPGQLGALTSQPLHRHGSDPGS

| SMILES | hERG current change (%, negative = inhibition) at 1uM [%] |
| --- | --- |
| N#Cc1c(N2CCCC2)nc(N)c2c(N)nc(N3CCCC3)cc12 | 13.5 |
| O=C(/C=C/c1ccco1)NCc1ccco1 | 15.8 |
| N#Cc1ccc(/C=C(\C(=O)C(=O)O)c2ccc3ccccc3n2)cc1 | 10.4 |
| O=[N+]([O-])c1cccc(-c2cc3ccccc3[nH]2)c1 | 16.7 |
| Cc1ccc([N+](=O)[O-])c(OCC(O)CNC(C)(C)C)c1.Cl (centres unmarked) | 7.78 |
| COc1ccc(CNC2c3ccccc3-c3ccccc32)cc1OC | -4.19 |
| O=C(O)CSCC(=O)N1CCCN(c2ccc(C(F)(F)F)cn2)CC1 | 12.5 |
| COc1ccccc1Nc1nc(-c2cccs2)cs1 | -0.33 |
| c1ccc(Cn2cc(CN3CCCCO3)c(-c3ccc4c(c3)OCO4)n2)cc1 | 18.9 |
| Cc1csc(=O)n1CC(=O)OCC(=O)NNC(=O)c1ccc(Cl)cc1 | 11.5 |
| Clc1cc(Cl)c(Cl)c(Cl)c1Cl | 12 |
| COc1ccc(C(=O)N2CCCC(c3nc(-c4ccc(C)o4)no3)C2)cc1OC (centres unmarked) | 2.41 |
| CCC(=O)Nc1ccc(-c2nnc(SCC(=O)N3CCCCC3)n2C)cc1 | 6.91 |
| O=C1CCN(Cc2ccccc2)CCN1CCO | 19.9 |
| O=C(N=NC(=O)c1ccc2c(O)n(CC3CCCO3)c(O)c2c1)c1cccnc1 (centres unmarked) | 5.68 |
| CCOc1ccccc1-c1nnc(CS(=O)(=O)c2ccccc2)o1 | -26.9 |
| COCC(=O)Nc1nnc(SCC(=O)N2C(C)CCCC2C)s1 (centres unmarked) | 9.89 |
| COc1ccc(OCCNC(=O)c2ccc(C)cc2)cc1 | 15.8 |
| O=C(Cn1c(=O)oc2cc(S(=O)(=O)N3CCCC3)ccc21)NC1CCCc2ccccc21 (centres unmarked) | 6.47 |
| Cc1ccc(NC(=O)C(=O)NCCOc2ccccc2Cl)cc1 | 13.9 |
| COc1cc(-c2noc(-c3ccco3)n2)cc(OC)c1OC | 9.92 |
| Nc1nnc(-c2cc3ccccc3oc2=O)s1 | 12 |
| O=C(Nc1cccc(C(F)(F)F)c1)C(Sc1cccc[n+]1[O-])c1ccccc1 (centres unmarked) | 4.74 |

| SMILES | hERG current change (%, negative = inhibition) at 1uM [%] |
| --- | --- |
| COc1cccc(C(=O)N/N=C/c2ccc(OC3CSC3)cc2)c1 | 12.7 |
| O=C(NCCCN1CCCCC1)C1CCC(CNS(=O)(=O)c2cccc3nsnc23)CC1 (centres unmarked) | 3.81 |
| COCCn1nnnc1CN1C2CCCC1CC(NC(C)=O)C2 (centres unmarked) | 3.87 |
| O=C1CC(C(=O)N2CCN(c3ccccn3)CC2)CN1Cc1ccccc1Cl (centres unmarked) | -12.4 |
| CCCCN(C)CCCNC(=O)c1cc(=O)[nH]c2ccc(S(=O)(=O)N3CCCCC3C)cc12 (centres unmarked) | 7.27 |
| Cc1cc(NC(=O)CSCC(=O)Nc2ccc(Cl)c(C(F)(F)F)c2)no1 | -0.128 |
| Clc1cccc(Nc2c3c(nc4ncnn24)CCC3)c1 | -10.1 |
| Cc1ccc(N2C(=O)CC(N3CCN(c4ccccn4)CC3)C2=O)cc1 (centres unmarked) | -8.68 |
| Cc1[nH]c2ccc(C(=O)N3CCCCC3)cc2c1C | -9.5 |
| Cc1cc(NS(=O)(=O)c2ccc(NS(=O)(=O)c3ccc(Br)cc3)cc2)no1 | 6.95 |
| CC(=O)c1ccc(Cc2ccc(C(C)=O)cc2)cc1 | 4.62 |
| Cc1cc(C)n(CC(O)Cn2cnc3c2c(=O)n(C)c(=O)n3C)n1 (centres unmarked) | -0.188 |
| COc1ccccc1OCC(=O)N(Cc1nc(-c2ccccc2)no1)C1CCCCC1 | 17.8 |
| O=C(Nc1ccc([N+](=O)[O-])cc1)Nc1ccc2c(c1)OCCO2 | 17.8 |
| CCOC(=O)c1ccc(NC(=S)N2CCCC(C)C2)cc1 (centres unmarked) | 9.53 |
| CC(=O)Cc1nsc(NC(=O)c2ccc(-c3cc(Cl)ccc3Cl)o2)n1 | 11 |
| Cc1ccc(-n2cc[nH]c2=S)c(C)c1 | 13.3 |
| CSc1nc(C)c(CCOC(=O)c2cccc(C)c2)c(=O)[nH]1 | 19.9 |
| Cc1cc(C)c(OCC(O)CN2CCN(c3ccccn3)CC2)c(C)c1.Cl (centres unmarked) | -15.1 |
| CCn1c(SCC(=O)NC2CCCCC2)nnc1-c1cccnc1 | 17.1 |
| Cc1cc(S(=O)(=O)NCC(c2ccc3c(c2)OCO3)N2CCOCC2)ccc1F (centres unmarked) | 4.01 |
| COCn1c(-c2cccc(Br)c2)nc2ccccc21 | -3.47 |
| COc1cc(NC(=O)c2cc(-c3cccc(O)c3)on2)cc(OC)c1OC | -5.74 |

| SMILES | hERG current change (%, negative = inhibition) at 1uM [%] |
| --- | --- |
| COc1ccc(NC(=O)C(CC(C)C)NC(=O)C2CCCCC2)c(OC)c1 (centres unmarked) | 2.66 |
| O=C(CCc1ccc(S(=O)(=O)NC2CCCCC2)cc1)N(Cc1ccccc1)Cc1ccccc1 | 8.06 |
| COc1cc(N=c2oc3c(C)ncc(CO)c3cc2C(N)=O)cc(OC)c1OC | 5.57 |
| CN(C)C1=NC[C@H](Cc2ccccc2)N1CCc1cccc(F)c1 | -24.1 |
| CNc1ccc(/C=C/C(=O)c2cccc3ccccc23)cc1[N+](=O)[O-] | 7.91 |
| CCOC(=O)c1c(C)nc2c(C#N)cnn2c1C | -28.5 |
| CCn1nc(C)c(CN2CCc3c([nH]c4ccccc34)C2c2ccc(F)c(OC)c2)c1C (centres unmarked) | -5.11 |
| O=C(CSc1nc2ccccc2n1S(=O)(=O)c1cccc([N+](=O)[O-])c1)NCc1cccs1 | 10 |
| COc1cc(C(=O)OCC(=O)NC2CCS(=O)(=O)C2)c([N+](=O)[O-])cc1OC (centres unmarked) | 1.32 |
| CCCCn1c(=O)[nH]c(=O)c2c1nc(-c1ccc(-c3ccc(F)cc3)o1)n2C | 2.23 |
| Cc1nn(Cc2ccccc2)c(C)c1NC(=O)CCCn1nc([N+](=O)[O-])c(Cl)c1C | 3.32 |
| CCN(CC)S(=O)(=O)c1ccc(C2CNC(=O)C2)cc1 (centres unmarked) | -53.8 |
| O=[N+]([O-])c1ccc(COc2cccnc2)cc1 | -4.98 |
| Cc1cc([N+](=O)[O-])ccc1NC(=O)CN1CCN(Cc2ccccc2)CC1 | -73.7 |
| Cc1cc(OCC(=O)N(C(C)C)C(C)C)cc(C)c1Br | 1.1 |
| Cc1ccc2oc(=O)n(CC(=O)OCCC(C)C)c2c1 | 14.1 |
| Cc1noc2ncnc(N3CCN(c4cccc(Cl)c4)CC3)c12 | -15.1 |
| Cc1ccc(NC(=O)c2cc3c(s2)CCCC3)cc1 | 1.24 |
| Cc1cccc(Oc2ccccc2N)c1 | 2.89 |
| Cc1cccc(N2CCN(S(=O)(=O)c3cccc4nonc34)CC2C)c1 (centres unmarked) | 12.5 |
| COc1cccc(NC(=O)CN(C)C(=O)c2cccnc2Nc2cccc(C(F)(F)F)c2)c1 | 16.5 |
| COc1cc(S(=O)(=O)NCc2ccncc2)c(OC)cc1Cl | 8.65 |
| CCCC(=O)N1CC(=O)Nc2ccc(Br)cc2C1c1ccc(F)cc1 (centres unmarked) | 1.29 |

| SMILES | hERG current change (%, negative = inhibition) at 1uM [%] |
| --- | --- |
| O=C(Nc1cccc(-c2cnc3ccccc3n2)c1)c1ccco1 | -21.6 |
| CC(C)(C)C1CCc2onc(C(=O)Nc3cnn(Cc4ccc(F)cc4)c3)c2C1 (centres unmarked) | 11.3 |
| COc1ccccc1-c1nc2ccccc2c(=O)n1NC(=O)c1cccs1 | 13 |
| CN(C)C(/C=C/Nc1ccc(F)cc1)=C(C#N)C#N | 10.3 |
| CCCN(CCC)CCCNC(=O)CC1Nc2ccccc2NC1=O (centres unmarked) | 7.84 |
| CCCN1CCCc2ccccc21.Cl | 14.9 |
| COCc1cc(C)nc(OCC(=O)N/N=C/c2ccc(-c3cc([N+](=O)[O-])ccc3C)o2)c1C#N | 1.12 |
| O=C(O)CCc1nn2c3ccccc3n(CCN3CCCCC3)c2nc1=O | 4.19 |
| CCOc1ccc2nc(NC(=O)COC)sc2c1 | 13.6 |
| O=C(O)CCCCCN1C(=O)/C(=C\c2cn(-c3ccccc3)nc2-c2cccs2)SC1=S | 6 |
| COc1ccc(C(=O)NC2CCCc3ccccc32)cc1 (centres unmarked) | 5.31 |
| O=C(CN1CCC(Cc2ccccc2)CC1)NC(=O)NCc1ccccc1 | 5.43 |
| Cc1ccccc1NC(=O)/C(C#N)=C\c1cn(CC(=O)O)c2ccccc12 | 13.1 |
| CCN1CCN(CCCNC(=O)Cn2nc(C)n3nc(-c4ccccc4)cc3c2=O)CC1 | 15 |
| CCn1c(-c2ccccc2)c(C(=O)CCl)c2ccccc21 | 14.8 |
| CN1CCN(C(=O)N2c3ccccc3C=Cc3ccccc32)CC1 | -4.3 |
| Cc1ccc(-n2c(Cl)c(Cl)[nH]c(=O)c2=O)cc1 | 4.01 |
| CCCOC(=O)c1cccc(NC(=O)C(C)(C)C)c1 | 11.7 |
| COc1ccc(NC(=O)c2cc3cc(OC)ccc3oc2=N)cc1 | 21.1 |
| CCCOCc1ccc(O)c2ncccc12 | 5.95 |
| CCCCNC(=O)COC(=O)c1ccc(F)cc1Cl | -15.7 |
| O=C(CSc1nnc2ccc(-c3ccccn3)nn12)Nc1ccc(F)cc1F | 1.64 |
| C[C@@H](C(=O)NCc1ccccc1)[C@@H]1C[C@@]1(C)[C@@H](NC(=O)OCc1ccccc1)c1ccccc1 | 3.9 |
